Source: the supplement of paper PMC12217912
Some of the results follow. Sequences were assembled here from the parent chain. Values near 0.05 are background.

B1: TEV protease; numbered along this chain (parent)
chain: MGESLFKGPRDYNPISSSICHLTNESDGHTTSLYGIGFGPFIITNKHLFRRNNGTLVVQSLHGVFKVKDTTTLQQHLVDGRDMIIIRMPKDFPPFPQKLKFREPQREERICLVTTNFQTKSMSSMVSDTSCTFPSGDGIFWKHWIQTKDGQCGSPLVSTRDGFIVGIHSASNFTNTNNYFTSVPKNFMELLTNQEAQQWVSGWRLNADSVLWGGHKVFMVKPEEPFQPVKEATQL

Variants of: B1
Assay: raw area under fraction-flipped curve 0-4 h after induction (AUC4h, not background-subtracted), DNA-recorder readout of cleavage of the substrate (dimensionless); higher = more cleavage of the substrate by the protease variant
Conditions: temperature: 34 °C; time window: 0-4 h after rhamnose induction
Procedure: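 In vivo DNA recorder in E. coli TOP10(DE3) ΔrhaA at 34 °C. Each TEVp single-site mutant (parent TEVp 0) is paired with a single-site variant of the 7-mer TEVs (canonical ENLYFQ|S). The substrate sits between flexible linkers in a Bxb1-sfGFP-TEVs-SsrA fusion, so cleavage stabilises Bxb1 and speeds flipping of a recombination array, read by NGS. The value is the raw area under the fraction-flipped curve over 0-4 h after rhamnose induction (AUC4h), with ≥20 reads per time point. It is not background-subtracted; inactive controls average about 0.047.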
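Note: Bxb1 expression induced with 0.2% (w/v) L-rhamnose at OD600 near 0.5, cultures sampled hourly, flipped fraction per protease–substrate barcode pair counted by paired-end Illumina sequencing.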

Row | Variant | area with substrate ENLYFQA | area with substrate ENLYFQC | area with substrate ENLYFQF | area with substrate ENLYFQG | area with substrate ENLYFQH | area with substrate ENLYFQI | area with substrate ENLYFQK | area with substrate ENLYFQL | area with substrate ENLYFQM | area with substrate ENLYFQN | area with substrate ENLYFQP | area with substrate ENLYFQS | area with substrate ENLYFQT | area with substrate ENLYFQV | area with substrate ENLYFQW | area with substrate ENLYFQD | area with substrate ENLYFQR | area with substrate ENLYFQQ | area with substrate ENLYFQY | area with substrate ENLYFQE
1 | N24Q | 0.0764 | 0.0926 | 0.0677 | 0.0788 | 0.0789 | 0.0665 | 0.0603 | 0.0652 | 0.0882 | 0.0556 | 0.0554 | 0.0906 | 0.0649 | 0.0593 | 0.0606 | – | – | – | – | –
2 | N24R | 0.0602 | 0.0682 | – | 0.0778 | 0.0725 | 0.0602 | 0.0567 | 0.0436 | 0.0864 | 0.0699 | – | 0.0719 | 0.0606 | – | 0.0585 | 0.0856 | 0.068 | – | – | –
3 | N24T | 0.0764 | 0.103 | – | – | – | 0.0664 | 0.0645 | 0.0617 | 0.0753 | 0.0543 | 0.0621 | 0.0757 | 0.0576 | 0.061 | 0.0634 | – | 0.0701 | 0.0382 | 0.0746 | –
4 | N24W | 0.0742 | 0.0822 | – | 0.0629 | – | 0.0599 | 0.0676 | 0.0598 | 0.0664 | – | 0.0565 | 0.075 | 0.0678 | 0.0825 | 0.0733 | 0.063 | 0.0528 | – | 0.0617 | –
5 | N24Y | 0.0802 | 0.0882 | – | 0.0763 | 0.0769 | 0.0644 | – | 0.0668 | 0.085 | 0.0759 | – | 0.0992 | 0.0708 | 0.0637 | 0.0936 | 0.056 | – | – | 0.0815 | 0.0599
6 | E25K | 0.0916 | 0.0755 | 0.0752 | 0.109 | – | 0.0571 | – | 0.0576 | 0.0871 | 0.0764 | 0.0409 | 0.0976 | 0.0615 | 0.0538 | 0.0596 | 0.0752 | 0.0682 | – | 0.0745 | –
7 | D27P | 0.0854 | 0.108 | – | 0.0872 | 0.0677 | 0.0618 | – | – | – | 0.0847 | – | 0.0831 | 0.0696 | 0.0632 | 0.0681 | 0.0599 | 0.0629 | – | – | –
8 | G28L | 0.0564 | 0.0766 | 0.0703 | 0.127 | – | 0.0593 | 0.0569 | 0.0589 | 0.0779 | 0.0725 | 0.0527 | 0.0853 | 0.0604 | – | 0.0635 | 0.0557 | 0.0557 | – | 0.0813 | 0.073
9 | G28T | 0.101 | – | – | 0.0804 | – | 0.0538 | 0.0574 | 0.0611 | 0.0687 | 0.0846 | 0.043 | 0.0877 | 0.0777 | 0.0658 | 0.0613 | – | 0.0548 | 0.0665 | 0.0842 | –
10 | T30C | 0.103 | 0.119 | 0.0889 | 0.0887 | 0.0825 | 0.0629 | 0.0633 | 0.056 | 0.0753 | 0.0805 | 0.0522 | 0.102 | 0.0784 | – | 0.0639 | 0.0776 | 0.0587 | 0.0845 | 0.126 | –
11 | T30S | 0.0969 | 0.132 | – | 0.102 | 0.0825 | 0.0624 | 0.0595 | 0.0721 | 0.0956 | 0.0787 | – | 0.107 | 0.0635 | 0.0565 | 0.0744 | 0.0745 | 0.0657 | – | 0.0774 | 0.0556
